Results from the supplement of paper PMC8728848.
Some of the results follow.

Tests used:
Assay in all cases: glycan array binding signal (z-score within array); higher = stronger binding
Details in all cases: glycan notation: IUPAC condensed, linker removed
[1] = biological target: Fuc(a1-2)[Gal(a1-3)]Gal(b1-4)GlcNAc(b1-2)Man(a1-3)[Fuc(a1-2)[Gal(a1-3)]Gal(b1-4)GlcNAc(b1-2)Man(a1-6)]Man(b1-4)GlcNAc(b1-4)[Fuc(a1-6)]GlcNAc
In short: (§1)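 Negative Z-scores can be read as non-binding. The Z-score is calculated within each array and then averaged across arrays of one protein sequence at different concentrations or buffers and across linkers. Arrays, 3228 in all, were curated from the Consortium for Functional Glycomics database and kept only where the protein sequence was available.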

[2] = biological target: Fuc(a1-2)[Gal(a1-3)]Gal(b1-4)GlcNAc(b1-3)GalNAc
In short: as §1

[3] = biological target: Fuc(a1-2)[Gal(a1-3)]Gal(b1-4)GlcNAc(b1-3)[Fuc(a1-2)[Gal(a1-3)]Gal(b1-4)GlcNAc(b1-6)]GalNAc
In short: as §1

[4] = biological target: Fuc(a1-2)[Gal(a1-3)]Gal(b1-4)GlcNAc(b1-6)GalNAc
In short: as §1

[5] = biological target: Fuc(a1-2)[Gal(a1-3)]Gal(b1-4)[Fuc(a1-3)]Glc
In short: as §1

[6] = biological target: Fuc(a1-2)[Gal(a1-3)]Gal(b1-4)[Fuc(a1-3)]GlcNAc
In short: as §1

[7] = biological target: Fuc(a1-2)[Gal(a1-3)]Gal(b1-4)[Fuc(a1-3)]GlcNAc(b1-3)GalNAc
In short: as §1

[8] = biological target: Fuc(a1-2)[Gal(a1-4)]Gal(b1-4)GlcNAc
In short: as §1

[9] = biological target: Fuc(a1-2)[GalNAc(a1-3)]Gal
In short: as §1

[10] = biological target: Fuc(a1-2)[GalNAc(a1-3)]Gal(b1-3)GalNAc(a1-3)[Fuc(a1-2)]Gal(b1-4)GlcNAc
In short: as §1

[11] = biological target: Fuc(a1-2)[GalNAc(a1-3)]Gal(b1-3)GalNAc(b1-3)Gal(a1-4)Gal(b1-4)Glc
In short: as §1

[12] = biological target: Fuc(a1-2)[GalNAc(a1-3)]Gal(b1-3)GlcNAc
In short: as §1

[13] = biological target: Fuc(a1-2)[GalNAc(a1-3)]Gal(b1-3)GlcNAc(b1-2)Man(a1-3)[Fuc(a1-2)[GalNAc(a1-3)]Gal(b1-3)GlcNAc(b1-2)Man(a1-6)]Man(b1-4)GlcNAc(b1-4)GlcNAc
In short: as §1

[14] = biological target: Fuc(a1-2)[GalNAc(a1-3)]Gal(b1-3)GlcNAc(b1-2)Man(a1-3)[Fuc(a1-2)[GalNAc(a1-3)]Gal(b1-3)GlcNAc(b1-2)Man(a1-6)]Man(b1-4)GlcNAc(b1-4)[Fuc(a1-6)]GlcNAc
In short: as §1

[15] = biological target: Fuc(a1-2)[GalNAc(a1-3)]Gal(b1-3)GlcNAc(b1-3)GalNAc
In short: as §1

[16] = biological target: Fuc(a1-2)[GalNAc(a1-3)]Gal(b1-3)GlcNAc(b1-6)GalNAc
In short: as §1

[17] = biological target: Fuc(a1-2)[GalNAc(a1-3)]Gal(b1-4)Glc
In short: as §1

[18] = biological target: Fuc(a1-2)[GalNAc(a1-3)]Gal(b1-4)GlcNAc
In short: as §1

[19] = biological target: Fuc(a1-2)[GalNAc(a1-3)]Gal(b1-4)GlcNAc(b1-2)Man
In short: as §1

[20] = biological target: Fuc(a1-2)[GalNAc(a1-3)]Gal(b1-4)GlcNAc(b1-2)Man(a1-3)[Fuc(a1-2)[GalNAc(a1-3)]Gal(b1-4)GlcNAc(b1-2)Man(a1-6)]Man(b1-4)GlcNAc(b1-4)GlcNAc
In short: as §1

[21] = biological target: Fuc(a1-2)[GalNAc(a1-3)]Gal(b1-4)GlcNAc(b1-2)Man(a1-3)[Fuc(a1-2)[GalNAc(a1-3)]Gal(b1-4)GlcNAc(b1-2)Man(a1-6)]Man(b1-4)GlcNAc(b1-4)[Fuc(a1-6)]GlcNAc
In short: as §1

[22] = biological target: Fuc(a1-2)[GalNAc(a1-3)]Gal(b1-4)GlcNAc(b1-3)Gal(b1-4)GlcNAc
In short: as §1

[23] = biological target: Fuc(a1-2)[GalNAc(a1-3)]Gal(b1-4)GlcNAc(b1-3)Gal(b1-4)GlcNAc(b1-3)Gal(b1-4)GlcNAc
In short: as §1

[24] = biological target: Fuc(a1-2)[GalNAc(a1-3)]Gal(b1-4)GlcNAc(b1-3)GalNAc
In short: as §1

[25] = biological target: Fuc(a1-2)[GalNAc(a1-3)]Gal(b1-4)GlcNAc(b1-3)[Fuc(a1-2)[GalNAc(a1-3)]Gal(b1-4)GlcNAc(b1-6)]GalNAc
In short: as §1

[26] = biological target: Fuc(a1-2)[GalNAc(a1-3)]Gal(b1-4)GlcNAc(b1-6)GalNAc
In short: as §1

[27] = biological target: Fuc(a1-2)[GalNAc(a1-3)]Gal(b1-4)[Fuc(a1-3)]GlcNAc
In short: as §1

[28] = biological target: Fuc(a1-2)[GalNAc(a1-3)]Gal(b1-4)[Fuc(a1-3)]GlcNAc(b1-3)GalNAc
In short: as §1

[29] = biological target: Fuc(a1-2)[GalNAc(a1-4)]Gal(b1-4)GlcNAc
In short: as §1

[30] = biological target: Fuc(a1-2)[GalNAc(b1-3)]Gal
In short: as §1

Fuc(a1-3)GlcNAc = biological target: Fuc(a1-3)GlcNAc
In short: as §1

[31] = biological target: Fuc(a1-3)[Gal(b1-4)]Glc6S
In short: as §1

[32] = biological target: Fuc(a1-3)[Gal(b1-4)]GlcNAc
In short: as §1

[33] = biological target: Fuc(a1-3)[Gal(b1-4)]GlcNAc(b1-2)Man
In short: as §1

[34] = biological target: Fuc(a1-3)[Gal(b1-4)]GlcNAc(b1-2)Man(a1-3)[Fuc(a1-3)[Gal(b1-4)]GlcNAc(b1-2)Man(a1-6)]Man(b1-4)GlcNAc(b1-4)GlcNAc
In short: as §1

[35] = biological target: Fuc(a1-3)[Gal(b1-4)]GlcNAc(b1-2)Man(a1-3)[Fuc(a1-3)[Gal(b1-4)]GlcNAc(b1-2)Man(a1-6)]Man(b1-4)GlcNAc(b1-4)[Fuc(a1-6)]GlcNAc
In short: as §1

[36] = biological target: Fuc(a1-3)[Gal(b1-4)]GlcNAc(b1-3)Gal(b1-3)[Fuc(a1-4)]GlcNAc
In short: as §1

[37] = biological target: Fuc(a1-3)[Gal(b1-4)]GlcNAc(b1-3)Gal(b1-4)[Fuc(a1-3)]GlcNAc
In short: as §1

[38] = biological target: Fuc(a1-3)[Gal(b1-4)]GlcNAc(b1-3)Gal(b1-4)[Fuc(a1-3)]GlcNAc(b1-3)Gal(b1-4)[Fuc(a1-3)]GlcNAc
In short: as §1

[39] = biological target: Fuc(a1-3)[Gal(b1-4)]GlcNAc(b1-3)GalNAc
In short: as §1

[40] = biological target: Fuc(a1-3)[Gal(b1-4)]GlcNAc(b1-6)GalNAc
In short: as §1

[41] = biological target: Fuc(a1-3)[Gal(b1-4)]GlcNAc(b1-6)[Gal(b1-3)GlcNAc(b1-3)]Gal(b1-4)Glc
In short: as §1

[42] = biological target: Fuc(a1-3)[Gal(b1-4)]GlcNAc6S
In short: as §1

[43] = biological target: Fuc(a1-3)[Gal3S(b1-4)]Glc
In short: as §1

[44] = biological target: Fuc(a1-3)[Gal3S(b1-4)]GlcNAc
In short: as §1

[45] = biological target: Fuc(a1-3)[Gal3S(b1-4)]GlcNAc6S
In short: as §1

[46] = biological target: Fuc(a1-3)[GalNAc(b1-4)]GlcNAc
In short: as §1

[47] = biological target: Fuc(a1-3)[GalNAc(b1-4)]GlcNAc6S
In short: as §1

Fuc(a1-4)GlcNAc = biological target: Fuc(a1-4)GlcNAc
In short: as §1

Fuc(b1-3)GlcNAc = biological target: Fuc(b1-3)GlcNAc
In short: as §1

Gal(a1-2)Gal = biological target: Gal(a1-2)Gal
In short: as §1

Gal(a1-3)Gal = biological target: Gal(a1-3)Gal
In short: as §1

Gal(a1-3)Gal(b1-3)GlcNAc = biological target: Gal(a1-3)Gal(b1-3)GlcNAc
In short: as §1

[48] = biological target: Gal(a1-3)Gal(b1-3)GlcNAc(b1-2)Man
In short: as §1

[49] = biological target: Gal(a1-3)Gal(b1-3)GlcNAc(b1-2)Man(a1-3)[Gal(a1-3)Gal(b1-3)GlcNAc(b1-2)Man(a1-6)]Man(b1-4)GlcNAc(b1-4)GlcNAc
In short: as §1

[50] = biological target: Gal(a1-3)Gal(b1-3)GlcNAc(b1-3)GalNAc
In short: as §1

[51] = biological target: Gal(a1-3)Gal(b1-3)GlcNAc(b1-6)GalNAc
In short: as §1

[52] = biological target: Gal(a1-3)Gal(b1-3)[Fuc(a1-4)]GlcNAc(b1-2)Man(a1-3)[Gal(a1-3)Gal(b1-3)[Fuc(a1-4)]GlcNAc(b1-2)Man(a1-6)]Man(b1-4)GlcNAc(b1-4)GlcNAc
In short: as §1

Gal(a1-3)Gal(b1-4)Glc = biological target: Gal(a1-3)Gal(b1-4)Glc
In short: as §1

Gal(a1-3)Gal(b1-4)GlcNAc = biological target: Gal(a1-3)Gal(b1-4)GlcNAc
In short: as §1

B1: GS14009A-pdi-495-27-495 (Parabacteroides distasonis) (protein)
chain: FEEVNTDPDSPTDVPTTNLLAYSLYYTSYRLYDRWFAMDEPMTFCGYASKMTYIDESRYNFRTGVQDTNWEYLYRILNNLKDIEKRATFNETPNMLNVSKVMQVHLMQVATDRWRDVPYTDAAKMTDGILQPKYDKQEDIYPGLLATLKEAADGFADGGSDDLGEGDLLFGGDIEKWQRYCNSMRLRLAMRISEVSPALAKETVEEVMGNPTKYPIMESNDDNAFFWWIGTDPNYYEPMADGYRTRKTEYCAADVIVDHMNTREDPRRSSYFQPTKESVEAGEPKYVGYTIGAKANAVASKYSIWGARFFTDLAGFSPYMRVAEPWFCVAEASMLGWNTGISAEDAYNKAVTYSMEENSVSAEDIADYLANAGKFTNDKKQIYYEEWVAMFKQGMEGWSLYRRTGVPDNLYPAPGRPANYSNHNVPPFRSPYPDKERNLNNANCAPFDAEVVDNLWGKQMWWDTRTGVH
glycan array binding signal (z-score) [1]: -0.563
glycan array binding signal (z-score) [2]: -0.772
glycan array binding signal (z-score) [3]: -0.176
glycan array binding signal (z-score) [4]: 0.263
glycan array binding signal (z-score) [5]: 1.15
glycan array binding signal (z-score) [6]: -0.366
glycan array binding signal (z-score) [7]: -0.109
glycan array binding signal (z-score) [8]: 0.06
glycan array binding signal (z-score) [9]: -0.525
glycan array binding signal (z-score) [10]: -0.38
glycan array binding signal (z-score) [11]: -0.149
glycan array binding signal (z-score) [12]: -0.419
glycan array binding signal (z-score) [13]: -0.206
glycan array binding signal (z-score) [14]: 1.42
glycan array binding signal (z-score) [15]: -0.101
glycan array binding signal (z-score) [16]: -0.122
glycan array binding signal (z-score) [17]: -0.418
glycan array binding signal (z-score) [18]: -0.289
glycan array binding signal (z-score) [19]: -0.26
glycan array binding signal (z-score) [20]: 0.21
glycan array binding signal (z-score) [21]: 2.8
glycan array binding signal (z-score) [22]: -0.179
glycan array binding signal (z-score) [23]: 0.016
glycan array binding signal (z-score) [24]: -0.302
glycan array binding signal (z-score) [25]: 0.062
glycan array binding signal (z-score) [26]: -0.138
glycan array binding signal (z-score) [27]: -0.201
glycan array binding signal (z-score) [28]: 1.56
glycan array binding signal (z-score) [29]: -0.532
glycan array binding signal (z-score) [30]: -0.386
glycan array binding signal (z-score) (Fuc(a1-3)GlcNAc): -0.51
glycan array binding signal (z-score) [31]: 0.408
glycan array binding signal (z-score) [32]: -0.095
glycan array binding signal (z-score) [33]: -0.201
glycan array binding signal (z-score) [34]: -0.697
glycan array binding signal (z-score) [35]: 0.393
glycan array binding signal (z-score) [36]: -0.447
glycan array binding signal (z-score) [37]: 0.329
glycan array binding signal (z-score) [38]: 0.445
glycan array binding signal (z-score) [39]: -0.506
glycan array binding signal (z-score) [40]: 0.625
glycan array binding signal (z-score) [41]: -0.416
glycan array binding signal (z-score) [42]: -0.674
glycan array binding signal (z-score) [43]: -0.379
glycan array binding signal (z-score) [44]: -0.762
glycan array binding signal (z-score) [45]: -0.259
glycan array binding signal (z-score) [46]: 0.496
glycan array binding signal (z-score) [47]: -0.018
glycan array binding signal (z-score) (Fuc(a1-4)GlcNAc): -0.404
glycan array binding signal (z-score) (Fuc(b1-3)GlcNAc): 0.704
glycan array binding signal (z-score) (Gal(a1-2)Gal): -0.76
glycan array binding signal (z-score) (Gal(a1-3)Gal): -0.238
glycan array binding signal (z-score) (Gal(a1-3)Gal(b1-3)GlcNAc): -0.255
glycan array binding signal (z-score) [48]: 0.597
glycan array binding signal (z-score) [49]: 0.338
glycan array binding signal (z-score) [50]: -0.183
glycan array binding signal (z-score) [51]: -0.003
glycan array binding signal (z-score) [52]: 0.794
glycan array binding signal (z-score) (Gal(a1-3)Gal(b1-4)Glc): -0.017
glycan array binding signal (z-score) (Gal(a1-3)Gal(b1-4)GlcNAc): -0.77
